Results: PubChem BioAssay AID1645882 (National Center for Advancing Translational Sciences (NCATS), 2021)
Out of some 16,000 compounds screened, about 120 (0.75%) were called active. Roughly 4% stayed inconclusive and do not appear here. Calls come from the whole dose curve; as a rule, active = well fitted inhibition curve with a large enough effect; inconclusive = small, poorly fitted or top-dose-only effect; inactive = no such curve, though single readings can be large or run the other way. Some of the results follow.

biological target: Rap guanine nucleotide exchange factor 3 (Homo sapiens) (UniProt O95398); experiment: Validation qHTS for antagonist of cAMP-regulated guanine nucleotide exchange factor 3 (EPAC1); conditions: EPAC1 Rap1B-BODIPY-GDP exchange, fluorescence; series mostly up to 150 µM; activity change, negative = inhibition: at the top concentration; note: nearly all actives have a fitted effect of over 75% in size;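 for activity change, negative = inhibition: plate controls were DMSO for no effect and ATA control for full effect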
UniProt O95398, sequence (O95398 whole entry, looked up): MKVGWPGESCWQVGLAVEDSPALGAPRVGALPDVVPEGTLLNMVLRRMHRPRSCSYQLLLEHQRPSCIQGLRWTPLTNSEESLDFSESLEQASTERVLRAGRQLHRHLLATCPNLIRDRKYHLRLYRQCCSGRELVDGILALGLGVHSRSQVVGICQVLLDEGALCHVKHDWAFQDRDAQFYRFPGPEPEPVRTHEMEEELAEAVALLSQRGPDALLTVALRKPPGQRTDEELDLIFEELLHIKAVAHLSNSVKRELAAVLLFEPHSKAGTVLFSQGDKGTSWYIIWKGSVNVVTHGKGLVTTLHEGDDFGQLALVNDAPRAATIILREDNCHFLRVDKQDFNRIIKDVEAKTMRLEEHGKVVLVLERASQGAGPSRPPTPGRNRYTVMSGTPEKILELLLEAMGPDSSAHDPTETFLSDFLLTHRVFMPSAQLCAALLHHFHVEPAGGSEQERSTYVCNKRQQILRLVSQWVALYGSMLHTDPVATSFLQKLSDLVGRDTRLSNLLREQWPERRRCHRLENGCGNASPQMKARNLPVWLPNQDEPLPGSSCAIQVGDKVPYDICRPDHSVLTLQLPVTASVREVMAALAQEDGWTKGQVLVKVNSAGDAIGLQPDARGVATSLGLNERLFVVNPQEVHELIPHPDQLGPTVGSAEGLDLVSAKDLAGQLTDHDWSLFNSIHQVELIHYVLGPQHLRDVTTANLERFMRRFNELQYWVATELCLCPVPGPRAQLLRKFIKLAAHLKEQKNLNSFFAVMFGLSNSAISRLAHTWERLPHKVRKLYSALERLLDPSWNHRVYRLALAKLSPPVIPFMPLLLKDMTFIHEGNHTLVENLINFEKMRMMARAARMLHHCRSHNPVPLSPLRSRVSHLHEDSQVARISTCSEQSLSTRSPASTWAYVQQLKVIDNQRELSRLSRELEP
How it was run: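 Nucleotide exchange followed as fluorescence loss when BODIPY-GDP leaves Rap1B (480 nm excitation, 540 nm emission), read at 5 min intervals over 30 min. Reaction: 100 nM EPAC1, 250 nM RAP1B-BODIPY-GDP, 50 uM GDP; ATA and DMSO define normalization.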
Potency is the fitted concentration of half-maximal effect.

SMILES	activity change, negative = inhibition	Potency
Cn1cccc1C(=O)N1CCC2(CC1)CN(Cc1cc(C(F)(F)F)cc(C(F)(F)F)c1)C2	inactive: -11.3%	
Nc1nc2c(ncn2CCC(CO)CO)c(=O)[nH]1	inactive: 15.5%	
COc1ccc2cc(CNCc3ccccc3C(F)(F)F)c(N3CCCC(CO)C3)nc2c1 (centres undefined)	inactive: 8.84%	
N#Cc1cccc(-c2ccc3ncnc(N4CCNCC4)c3c2)c1	inactive: 2.65%	
COC1C(O)C(O)C(O)C(O)C1O (centres undefined)	inactive: 15.1%	
COC(=O)Nc1ccc2[nH]cc(CCNC(C)=O)c2c1	inactive	
CCC[C@H]1COCCS(=O)(=O)N1Cc1ccc(Br)cc1	inactive: -29.5%	
O=c1c(-c2ccc(Cl)cc2)nc2cnc(N3CCNCC3)nc2n1Cc1cccs1	inactive: -14.9%	
C=CCN1c2ccccc2C(=O)CS1(=O)=O	inactive: 14.9%	
Nc1ccccc1C(=O)CC(N)C(=O)O (centres undefined)	inactive	
CCCN1CCC(=O)N(CCOc2ccccc2)CC1	inactive: -5.59%	
CC(=O)OC1CC2C(C)(C)C(=O)CC[C@]2(C)C2CC[C@]3(C)C(=CC(=O)OC3c3ccoc3)[C@]12C (some centres undefined)	inactive: 8.46%	
CS(=O)(=O)N1CCC[C@@]2(CCN(c3ncccn3)C2)C1	inactive: 8.65%	
CN1C2CCC1CC(OC(=O)C(O)c1ccccc1)C2 (centres undefined)	inactive	
O=C(c1ccco1)N1CCC2(CC1)CCN(c1ccccc1)CC2	inactive: 23.5%	
CCN(CC)CCOCCOC(=O)C(CC)(CC)c1ccccc1	inactive: -9.82%	
CCC(Cc1c(I)cc(I)c(O)c1I)C(=O)O (centres undefined)	inactive: -11.7%	
CCn1c2ccccc2c2cc(CN3CCOc4ccc(C(O)c5cccnc5)cc4C3)ccc21 (centres undefined)	inactive: -2.64%	
CC1(C)Oc2ccc3ccc(=O)oc3c2CC1O (centres undefined)	inactive: 18.8%	
CC[C@@H](CO)NCCN[C@@H](CC)CO	inactive: 7.19% [at 75.8 µM]	
CCCCCCCCCCCCCC(=O)O[C@H](CC(=O)O)C[N+](C)(C)C	inactive: 2.67%	
O=c1cc(-c2ccccc2)oc2c1ccc1ccccc12	inactive: -7.73%	

SMILES	activity change, negative = inhibition	Potency
CC(CN(C)C)C(C)(O)Cc1ccc(Cl)cc1 (centres undefined)	inactive: 24.9%	
C[C@]1(Cn2ccnn2)[C@H](C(=O)O)N2C(=O)C[C@H]2S1(=O)=O	inactive: 12.8%	
Cn1cc(-c2nc3cnc(Oc4ccccc4)nc3n(C)c2=O)c2ccccc21	inactive: 20.8%	
CCCN1CCC(=O)N([C@H](COc2ccccc2)c2ccccc2)CC1	inactive: 5.05%	
COc1ncc2nc(-c3cc(F)cc(F)c3)c(=O)n(C[C@H]3CCCO3)c2n1	inactive: 16.2%	
CC1CN(CC(=O)N2CCN(Cc3nccn3C)CC2)Cc2cc(Cl)ccc2O1 (centres undefined)	inactive: 5.48%	
CC(=O)OCC(=O)[C@@]1(OC(C)=O)[C@@H](C)C[C@H]2[C@@H]3C[C@H](F)C4=CC(=O)C=C[C@]4(C)[C@@]3(F)[C@@H](O)C[C@@]21C	inactive: 2.71%	
O=C(C[n+]1cc(Br)cc2ccccc21)c1ccc(Br)cc1	inactive: 17.6%	
CC(N=C(NC#N)Nc1ccncc1)C(C)(C)C (centres undefined)	inactive	
O=C(NCCN1CCCCC1)c1ccc(I)cc1	inactive	
COc1cc(OC)c(OC)cc1CN1CCOc2ccc(CN3CCN(C(C)=O)CC3)cc2C1	inactive: 9.76%	
C[n+]1ccc(/C=C/c2ccc3ccccc3c2)cc1	inactive: 13.7%	
CS(=O)(=O)N1CCC[C@@]2(CCN(C(=O)Nc3cccc(C#N)c3)C2)C1	inactive: 7.87%	
N#Cc1ccc(CN2CCC3(CC2)CCN(C(=O)c2cnccn2)CC3)cc1	inactive: 24.6%	
CC1=C(/C=C/C(C)=C\C=C\C(C)=C\C(=O)O)C(C)(C)CCC1	inactive	
Cc1nc(C)c(C(=O)NCc2nc(-c3cccc(NC(=O)c4ccccn4)c3)oc2C)s1	inactive: -12.6%	
CCCN1CCC(=O)N([C@H](CO)CC(C)C)CC1	inactive: 6.63%	
CCN1CCCC1CNC(=O)c1cnn(-c2nccc(-c3cccs3)n2)c1C(C)C (centres undefined)	inactive: 10%	
COc1ccc2[nH]cc(CCNc3nc(-c4cccnc4)nc4ccccc34)c2c1	inactive: -9.8%	
N#Cc1cccc(NC(=O)N2CC[C@@]3(CCCN(C(=O)c4cnccn4)C3)C2)c1	inactive: 7.6%	
CCCCOC(=O)CC(CC(=O)OCCCC)(OC(C)=O)C(=O)OCCCC	inactive: -2.22%	
O=S(=O)(NCc1ccccc1)[C@@H]1CC2C=CC1C2 (some centres undefined)	inactive: 0.734%	

SMILES	activity change, negative = inhibition	Potency
CSc1ccc(CN2CCOc3ccc(CN4CCCCC4CO)cc3C2)cc1 (centres undefined)	inactive: 4.25%	
COCCn1c(=O)c(-c2cc(F)cc(F)c2)nc2cnc(N3CCOCC3)nc21	inactive: 6.24%	
c1cc2c3c(c1)CCCN3CCC2	inactive: 14%	
O=P(O)(O)OC(CO)CO	inactive: 18.5%	
O=C(c1cccc(F)c1)N1CCC[C@@]2(CCN(c3ccccc3)C2)C1	inactive: 21.5%	
Nc1ncnc2c1nc(Sc1ccc(Cl)cc1)n2[C@H]1OC2COP(=O)(O)O[C@@H]2C1O (some centres undefined)		active: 316 nM
COc1ccc2c(=O)cc(-c3ccccc3)oc2c1O	inactive: -2.57%	
Nc1ncnc2c1[nH]c(=O)n2C1OC(CO)C(O)C1O (centres undefined)	inactive: 14%	
CCCCC(=O)NCCc1c(Cc2ccccc2)[nH]c2ccccc12	inactive: 3.94%	
Cc1cnc2ccccc2c1/C=C/c1ccc(N(C)C)cc1	inactive: 1.35%	
O=C(NCc1nnc2n1CCN(Cc1ccc(C(F)(F)F)cc1)CC2)c1cccc(F)c1	inactive: 1.02%	
CCNc1ncc2nc(-c3cccs3)c(=O)n(CCc3ccccc3)c2n1	inactive: 16.7%	
CC(=O)NCCNc1nc(-c2ccc(C(=O)N(C)C)cc2)nc2ccccc12	inactive: -5.23%	
C[N+]1(CC(=O)c2ccc(Oc3ccccc3)cc2)CCOCC1	inactive: 9.33%	
COc1ccc(-c2oc3cc(OC)c(OC(C)=O)c(OC)c3c(=O)c2OC)cc1OC(C)=O	inactive: 10.4%	
CC(=O)O[C@H]1CC[C@@]2(C)C(=CC[C@H]3[C@@H]4CC[C@H](C(C)=O)[C@@]4(C)CC[C@@H]32)C1	inactive: 8.34%	
Cn1c(=O)[nH]c2nc[nH]c2c1=O	inactive: 10.8%	
CN1CCN(c2ncc3nc(-c4ccccc4)c(=O)n(-c4ccccc4)c3n2)CC1	inactive: 3.04%	
Nc1ncnc(Nc2ccccc2)n1	inactive: 15.8%	
CCC1(C2CCN(Cc3ccccn3)CC2)NC(=O)N(CC2COc3ccccc3O2)C1=O (centres undefined)	inactive: 5.43%	
O=C(c1cc(C(F)(F)F)cc(C(F)(F)F)c1)N1CCC2(CCCN(c3ccncc3)C2)CC1	inactive: -8.13%	
O=[N+]([O-])c1cccc2[nH]cnc12	inactive: 2.36%	

SMILES	activity change, negative = inhibition	Potency
N#C/C(=C\c1ccc(O)c(O)c1)C(=O)NCc1ccccc1	inactive	
O=c1c(-c2cc(F)cc(F)c2)nc2cnc(N3CCOCC3)nc2n1C[C@H]1CCCO1	inactive: 15.5%	
O=C(/C=C/c1ccccc1)NCCO	inactive: -4.58%	
CN(C)c1ccnc(-c2cccc(NS(C)(=O)=O)c2)n1	inactive: 10.3%	
N#CC(=C(\N)Sc1ccccc1N)/C(C#N)=C(/N)Sc1ccccc1N	inactive: 4.26% [at 75.8 µM]	
CC(C)CCCC(C)NC(C)C (centres undefined)	inactive: 14.9%	
C#C[C@]1(O)CC[C@H]2[C@@H]3CCC4=CC(=O)CC[C@@H]4[C@H]3CC[C@@]21CC	inactive: 13.2%	
COc1cccc(-c2cc(NCc3cccs3)ncn2)c1	inactive: -21.5%	
COc1ncc2nc(-c3ccc(Cl)cc3)c(=O)n(C[C@H]3CCCO3)c2n1	inactive: 3.04%	
CC(CN(C)C)CN1c2ccccc2Sc2ccccc21 (centres undefined)	inactive: 16.4%	
CC1(C)[C@@H](OC(=O)CCC(=O)O)CC[C@]2(C)[C@H]3C(=O)C=C4[C@@H]5C[C@@](C)(C(=O)O)CC[C@]5(C)CC[C@@]4(C)[C@]3(C)CC[C@@H]12	inactive	
COCCn1c(=O)c(C)nc2cnc(Oc3ccccc3)nc21	inactive: 9.82%	
CC(=O)N1CCC2(CC1)CN(C(=O)Nc1cccc(C#N)c1)C2	inactive: 6.68%	
COc1ccc(NC(=O)C2CC23CCN(Cc2cccc4ncccc24)CC3)cc1Cl (centres undefined)	inactive: 21.1%	
COc1cc(O)ccc1C(C)=O	inactive: 10.6%	
O=c1c(-c2cc(F)cc(F)c2)nc2cnc(N3CCOCC3)nc2n1Cc1ccc(F)cc1	inactive: 24.9%	
C#CCn1c(=O)c2c(ncn2C)n(C)c1=O	inactive	
CCOC(C)OCC	inactive: 5.96%	
C[C@@]12CCC3c4ccc(O)cc4CCC3C1CCC2O (some centres undefined)	inactive: 14%	
CC(=O)Nc1ccccc1-c1nc(CNC(=O)c2ccc(C)cc2)c(C)o1	inactive: -4.21%	
NC[C@@H]1O[C@@H](O[C@H]2[C@@H](O)[C@H](O[C@@H]3[C@@H](O)[C@@H](N)C[C@H](N)[C@H]3O[C@H]3O[C@H](CN)[C@@H](O)[C@@H](O)[C@H]3N)O[C@H]2CO)[C@H](N)[C@@H](O)[C@@H]1O	inactive: 35.1%	
CC(NC(=O)C1CC1)c1nnc2n1CCN(Cc1cccc(F)c1F)CC2 (centres undefined)	inactive: 2.02%	

SMILES	activity change, negative = inhibition	Potency
Cc1ncc2c(c1CNC(=O)c1ccc3c(c1)OCO3)CCN(C(=O)/C=C/c1ccccc1Cl)C2	inactive: 1.43%	
COc1ccc(-c2cc(=O)c3ccccc3o2)cc1OC	inactive: -4.63%	
CC(=O)OCC(=O)[C@H]1CC[C@H]2[C@@H]3CCC4=CC(=O)CC[C@]4(C)[C@H]3CC[C@]12C	inactive: -3.22%	
c1ccc(-c2onc(-c3ccco3)c2-c2ccc3[nH]ccc3c2)cc1	inactive: 9.12%	
CN(C)C(=O)c1ccc(-c2cncnc2NCCc2cnc[nH]2)cc1	inactive: -2.46%	
C=CCSCC=C	inactive: 12.4%	
O=C(C[n+]1ccncc1)c1ccc2c(c1)CCCC2	inactive: 18.3%	
O=C(O)CCC(=O)C(=O)O	inactive: 3.46%	
OC1CCC2Cc3ccccc3N=C12 (centres undefined)	inactive: -1.74%	
O=C(Nc1ccccc1)N1CCC2(CC1)CCN(C(=O)c1ccco1)CC2	inactive: 7.53%	
Cc1nc2cnc(Oc3cccc(Cl)c3)nc2n(CCc2ccccc2)c1=O	inactive: 7.85%	
O=C(CN1Cc2ccccc2OC(c2ccccc2)C1)NCc1cccnc1 (centres undefined)	inactive: -7.69%	
COc1cc(=O)n2c(c1C(=O)NC(C)c1ccco1)CCN(C(=O)c1ccc3c(c1)OCCO3)CC2 (centres undefined)	inactive: 1.16%	
CC(C)C[C@@H](NC(=O)[C@@H](O)[C@H](N)Cc1ccccc1)C(=O)O	inactive: 8.77%	
CC(N)C(=O)OC(C)(C)Cc1ccc(Cl)cc1 (centres undefined)	inactive	
Cc1sc2ccccc2[n+]1CCc1ccccc1	inactive: 0.561%	
C=C1C(=O)O[C@@H]2[C@H]3O[C@]3(C)CCC=C(C)CC[C@@H]12	inactive	
O=C(c1cnccn1)N1CCC[C@@]2(CCN(Cc3ccccc3)C2)C1	inactive: 11.2%	
CCNc1ncc2nc(-c3cc(F)cc(F)c3)c(=O)n(-c3ccc(OC)cc3)c2n1	inactive: 20.2%	
C[n+]1ccccc1/C=N/O	inactive	
CC[C@@H](C)[C@H]1O[C@]2(CC[C@@H]1C)C[C@@H]1C[C@H](C/C=C(/C)[C@H](O[C@@H]3C[C@H](OC)[C@H](O[C@@H]4C[C@H](OC)[C@@H](O)[C@H](C)O4)[C@H](C)O3)[C@@H](C)/C=C\C=C3CO[C@@H]4[C@H](O)C(C)=C[C@@H](C(=O)O1)[C@]34O)O2 (tested in a mixture with another compound)	inactive: -8%	
